# Assay results from publication PMC4336329 (PLoS ONE, 2015).
# The whole screen tested about 310,000 compounds, of which about 14,000 (4.5%) showed an effect of 50% or more. The effect is printed as a negative number. Some of the results follow.
# Target: human ether-à-go-go-related gene (hERG) potassium channel (human, UniProt Q12809)
# Assay: primary screen, population patch clamp on CHO cells stably expressing hERG
# 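Also: peak tail current of the secondary pulse compared with the same well before compound.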
# Chain of human ether-à-go-go-related gene (hERG) potassium channel (Q12809 whole entry, looked up): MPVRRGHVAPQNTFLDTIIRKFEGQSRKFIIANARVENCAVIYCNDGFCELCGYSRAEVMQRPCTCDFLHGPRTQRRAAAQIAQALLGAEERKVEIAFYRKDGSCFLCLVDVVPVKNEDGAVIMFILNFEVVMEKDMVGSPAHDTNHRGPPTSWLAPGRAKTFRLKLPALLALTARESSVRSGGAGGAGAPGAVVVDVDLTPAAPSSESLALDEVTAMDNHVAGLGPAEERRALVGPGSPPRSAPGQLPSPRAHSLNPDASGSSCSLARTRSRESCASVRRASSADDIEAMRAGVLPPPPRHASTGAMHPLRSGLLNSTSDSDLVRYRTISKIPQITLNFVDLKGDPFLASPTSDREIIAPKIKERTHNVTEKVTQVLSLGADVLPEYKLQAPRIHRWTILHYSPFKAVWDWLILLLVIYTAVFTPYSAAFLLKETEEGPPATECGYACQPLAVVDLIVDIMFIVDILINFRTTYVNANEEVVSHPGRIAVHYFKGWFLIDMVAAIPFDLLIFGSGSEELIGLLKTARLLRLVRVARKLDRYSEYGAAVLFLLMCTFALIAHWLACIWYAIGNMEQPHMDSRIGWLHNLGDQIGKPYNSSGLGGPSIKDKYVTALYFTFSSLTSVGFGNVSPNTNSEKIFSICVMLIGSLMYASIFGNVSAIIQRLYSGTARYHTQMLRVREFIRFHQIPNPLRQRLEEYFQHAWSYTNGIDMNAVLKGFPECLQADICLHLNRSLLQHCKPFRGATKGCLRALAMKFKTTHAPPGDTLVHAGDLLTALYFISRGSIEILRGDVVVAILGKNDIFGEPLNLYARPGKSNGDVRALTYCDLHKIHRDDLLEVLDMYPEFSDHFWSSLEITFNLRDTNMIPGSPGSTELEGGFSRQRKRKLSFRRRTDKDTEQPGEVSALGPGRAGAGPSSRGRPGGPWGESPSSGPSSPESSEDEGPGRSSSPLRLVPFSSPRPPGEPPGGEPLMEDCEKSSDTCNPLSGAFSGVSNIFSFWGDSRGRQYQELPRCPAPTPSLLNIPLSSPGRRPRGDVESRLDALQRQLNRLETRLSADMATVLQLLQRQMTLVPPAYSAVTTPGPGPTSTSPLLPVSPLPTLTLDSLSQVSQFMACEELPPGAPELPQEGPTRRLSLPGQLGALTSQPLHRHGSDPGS
row,Structure (SMILES),"hERG current change (%, negative = inhibition) at 10uM [%]"
1,CCC(=O)N1CCc2cc(Br)cc(S(=O)(=O)N3CCN(C(=O)c4ccco4)CC3)c21,5.06
2,COc1ccccc1CN1C(=O)CN(C2CCCCCC2)C(=O)C1c1ccc(F)cc1 (stereo not drawn),-37.7
3,O=C(CCN1CCN(c2ccccc2)CC1)N/N=C/c1ccccc1OC(F)F,-30.9
4,Fc1ccc(NC(=S)NCCc2ccccn2)cc1,7.88
5,COc1cccc(C2CN(c3ccc(F)cc3F)N=C2c2cccs2)c1OC (stereo not drawn),21.5
6,COc1ccccc1C(CNC(=O)c1cccc(S(=O)(=O)Nc2ccc(F)cc2)c1)N(C)C (stereo not drawn),-46.2
7,Cc1cc(C)cc(NC(=O)NCc2c(-c3ccccc3)noc2C)c1,16
8,COc1cc(NC(=O)c2ccc([N+](=O)[O-])cc2)ccc1NC(=O)C(C)C,3.58
9,CCc1ccc(NC(=O)c2cc(C)no2)cc1,-22.5
10,CCOc1ccc(-c2c(=O)n(OCc3ccccc3Br)c3ccccc3[n+]2[O-])c(OCC)c1,4.53
11,COc1cccc(-n2nnnc2SCC(=O)NCc2ccco2)c1,-2.06
12,CC1Cc2ccccc2N1C(=O)C12CCC(C)(C(=O)C1)C2(C)C (stereo not drawn),11.1
13,Cc1cc(C(F)F)n2nc(C(=O)Nc3ccc(F)cc3F)nc2n1,-2.95
14,O=C(c1ccco1)N1CCN(c2c(-c3ccccc3)c3cc(Cl)ccc3[nH]c2=O)CC1,1.69
15,CSc1cccc(NC(=O)c2nnn(CC(=O)Nc3cc(C)cc(C)c3)c2N)c1,14.9
16,Cc1cc(C)cc(NC(=O)c2cccc(NC3=NC4CS(=O)(=O)CC4S3)c2)c1 (stereo not drawn),19.6
17,COCCCn1c2nc3ccccc3nc2c2c(=O)n(CC3CCCO3)cnc21 (stereo not drawn),-44.1
18,CCCc1cc(-c2[nH]ncc2-c2ccc(C(=O)OCC)o2)c(O)cc1O,1.39
19,C/C(=N\NC(=O)c1c(Cl)cnn1C)c1ccc(NC(=O)c2ccc(Br)o2)cc1,-0.731
20,CCCN1CCN(C(=O)c2ccc(CS(=O)c3ccc(Cl)cc3)o2)CC1 (stereo not drawn),-5.99
21,CN1C(=O)c2ccccc2N(C)C1c1cccc(O)c1 (stereo not drawn),12.9

row,Structure (SMILES),"hERG current change (%, negative = inhibition) at 10uM [%]"
1,O=C(O)c1ccc(N2C(=O)CCCC2=O)cc1,15.5
2,COc1ccc(SCCCn2c(=O)c3c(ncn3C)n(C)c2=O)cc1,-18.6
3,CCCCCCCNC1=CC(=O)CC(c2ccco2)C1 (stereo not drawn),-76.9
4,Cc1ccc(C(=O)Nc2cccc(-c3cn4ccccc4n3)c2)cc1,8.43
5,O=C(c1ccc(Cn2c(=S)[nH]c3ccc(N4CCOCC4)cc3c2=O)cc1)N1CCC(N2CCCCC2)CC1,24.1
6,CC(C)c1ccc(S(=O)(=O)N2CCN(C(=O)c3cc(-c4ccccc4)n[nH]3)CC2)cc1,-8.43
7,COCCNC(=O)CN1C(=O)CN=C(c2ccccc2)c2ccccc21,-15.6
8,COc1cccc(NC(=O)N(CCCN2CCOCC2)C(C)c2cc3cccc(OC)c3o2)c1 (stereo not drawn),-29.4
9,Cc1c(OCC(=O)NCc2cccnc2)ccc2c3c(c(=O)oc12)CCC3,9.98
10,Cc1ccccc1NC(=O)CSc1[nH]c(=O)cc(C)c1C#N,14.3
11,O=C(NCCC1=CCCCC1)C1CCN(C(=O)c2ccc(Br)cc2)CC1,-30.9
12,CCOC(=O)c1cc(C(=O)OCC)c2cccc(C)n2c1=O,-7.73
13,Nc1c(-c2ccccc2)c(CSc2nc3ccccc3[nH]2)nn1-c1ccc(C(=O)O)cc1,9.01
14,O=C(COC(=O)c1ccc(Br)cc1)NC1CCCC1,21.7
15,O=C(Nc1cc(Sc2nc3ccccc3s2)cc([N+](=O)[O-])c1)c1ccccc1F,7.08
16,C#CCOCCOCCOCCNc1nc(N2CCOCC2)nc(N2CCN(C(=O)[C@H](Cc3cc4ccccc4[nH]3)n3cc([C@@H](N)C(C)CC)nn3)CC2)n1.Cl (stereo partly drawn),9.81
17,CC1CCCC(NC(=O)c2ccc(CNc3c(N4CCCC4)c(=O)c3=O)cc2)C1C (stereo not drawn),12.3
18,COCCNC(=O)c1onc(CSc2ccccc2C)c1C(=O)O,5.24
19,COc1ccc(C(=O)C2CCCN(Cc3c(O)cccc3OC)C2)cc1OC (stereo not drawn),-63.1
20,O=C(O)CC/C(=N\NC(=O)CNC(=O)c1cccc(Cl)c1)c1ccccc1,13.1
21,COc1ccccc1C(=O)NCCC(=O)NC1CCCC(C)C1C (stereo not drawn),-27.3
